Values marked as one replicate rest on one cluster of the flow cell; about a third of the high ones do not repeat.
These sequences were tested on ATP (assay: switch fluorescence ratio, 500 uM ATP over buffer (Cy3 cluster intensity, sum of 5 cycles each) (fold (ratio)); higher = stronger signal-on switching upon ATP binding; sequences stand for … in TCGTCGGCAGCGTCAGATGTGTATAAGAGACAGTTTTTTTTTTTTTTTTTTTTTTTTT…TC). Conditions: aptamer strand: ATP DNA aptamer (quencher-CACCTGGGGGAGTATTGCGGAGGAAGG + anchor), 100 nM annealed; ATP concentration: 500 uM; one replicate.
In short: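 Values give the fluorescence ratio for each switch-domain sequence, averaged from per-cluster ratios of summed target-cycle to summed buffer-cycle Cy3 intensity. The Cy3-labelled switching-strand clusters sat on a modified Illumina MiSeq flow-cell, were annealed to 100 nM quencher-labelled ATP aptamer, and were imaged in selection buffer, then after 15 min with 500 uM ATP at 22 °C. Five cycles ran with NaOH stripping and re-annealing between them, and clusters outside 100-1000 RFU were excluded.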
Sequence AACGCCTATT has a switch fluorescence ratio of 1.05.
In the case of AACGCGGCG, the switch fluorescence ratio is reported as 1.04.
Sequence AACGCGTCCA has a switch fluorescence ratio of 0.987.
For AACGCGTTTT, the switch fluorescence ratio was 1.01.
AACGCTGTTA gave a switch fluorescence ratio of 0.985.
Work on AACGCTTGGC yielded a switch fluorescence ratio of 1.04.
AACGGAAGGG was tested, and the switch fluorescence ratio was 1.05.
Sequence AACGGATTTA has a switch fluorescence ratio of 0.992.
Sequence AACGGCATAT has a switch fluorescence ratio of 1.1.
In the case of AACGGGAGGC, the switch fluorescence ratio is reported as 1.05.
In the case of AACGGGGAGG, the switch fluorescence ratio is reported as 1.03.
AACGGGTCAT was tested, and the switch fluorescence ratio was 1.04.
With AACGGTTTG the switch fluorescence ratio was 0.954.
Work on AACGTAGAAC yielded a switch fluorescence ratio of 1.05.
For AACGTCAGCC, the switch fluorescence ratio was 1.06.
AACGTGACTG gave a switch fluorescence ratio of 1.11.
Work on AACGTGATTG yielded a switch fluorescence ratio of 1.03.
AACGTTCTTA showed a switch fluorescence ratio of 0.997.
AACGTTTCCG was tested, and the switch fluorescence ratio was 0.955.
For AACGTTTCGA, the switch fluorescence ratio was 1.03.
Work on AACTAATGGA yielded a switch fluorescence ratio of 0.972.
For AACTAATTAG, the switch fluorescence ratio was 1.01.
AACTACAATG was tested, and the switch fluorescence ratio was 1.06.
Sequence AACTACCCCG has a switch fluorescence ratio of 1.3.
Work on AACTAGGGTC yielded a switch fluorescence ratio of 0.988.
With AACTATACGG the switch fluorescence ratio was 1.18.
AACTATGTCC showed a switch fluorescence ratio of 1.05.
AACTATTTT was tested, and the switch fluorescence ratio was 1.02.
AACTCTACGT showed a switch fluorescence ratio of 1.22.
Sequence AACTCTCTGC has a switch fluorescence ratio of 1.06.
With AACTGAAGAT the switch fluorescence ratio was 1.11.
With AACTGACGGT the switch fluorescence ratio was 1.09.
In the case of AACTGAGTCG, the switch fluorescence ratio is reported as 1.09.
AACTGCTCGA showed a switch fluorescence ratio of 1.03.
AACTGGCATG was tested, and the switch fluorescence ratio was 1.02.
AACTGGTTC showed a switch fluorescence ratio of 0.978.
AACTGTACGG gave a switch fluorescence ratio of 1.27.
In the case of AACTGTAGTG, the switch fluorescence ratio is reported as 1.02.
AACTGTATCA showed a switch fluorescence ratio of 1.07.
In the case of AACTTAGAAG, the switch fluorescence ratio is reported as 1.01.
With AACTTAGAGG the switch fluorescence ratio was 1.
AACTTATATA was tested, and the switch fluorescence ratio was 0.988.
For AACTTCACGG, the switch fluorescence ratio was 1.27.
AACTTCCACG showed a switch fluorescence ratio of 1.05.
Work on AACTTGAGTC yielded a switch fluorescence ratio of 0.959.
AACTTTTATA gave a switch fluorescence ratio of 0.999.
AAGAAAGCAA was tested, and the switch fluorescence ratio was 0.923.
For AAGAAAGCGC, the switch fluorescence ratio was 1.07.
AAGAAATCTT gave a switch fluorescence ratio of 0.957.
In the case of AAGAACGGAG, the switch fluorescence ratio is reported as 1.03.
With AAGAACGGTG the switch fluorescence ratio was 0.999.
For AAGAACTTAA, the switch fluorescence ratio was 1.07.
Sequence AAGAAGACCT has a switch fluorescence ratio of 1.17.
AAGAATCTCG gave a switch fluorescence ratio of 1.05.
Work on AAGACAAGTG yielded a switch fluorescence ratio of 0.971.
AAGACGCGGC was tested, and the switch fluorescence ratio was 1.15.
In the case of AAGACGGCTT, the switch fluorescence ratio is reported as 0.994.
AAGACGTGC showed a switch fluorescence ratio of 1.03.
In the case of AAGACTCGAA, the switch fluorescence ratio is reported as 1.07.
In the case of AAGAGCATCG, the switch fluorescence ratio is reported as 0.975.
AAGAGCCGTC showed a switch fluorescence ratio of 0.978.
For AAGAGCCTTT, the switch fluorescence ratio was 1.
With AAGAGCTCTA the switch fluorescence ratio was 0.997.
Work on AAGAGGGTTG yielded a switch fluorescence ratio of 1.01.
For AAGAGTACCC, the switch fluorescence ratio was 0.968.
AAGAGTGTT gave a switch fluorescence ratio of 1.
In the case of AAGAGTGTTG, the switch fluorescence ratio is reported as 1.02.
AAGATACCCG was tested, and the switch fluorescence ratio was 1.02.
Work on AAGATATTTA yielded a switch fluorescence ratio of 0.984.
For AAGATCTAAC, the switch fluorescence ratio was 0.976.
With AAGATGCGAC the switch fluorescence ratio was 1.08.
AAGATTACTG gave a switch fluorescence ratio of 1.01.
In the case of AAGATTCTT, the switch fluorescence ratio is reported as 0.963.
AAGATTGGAA gave a switch fluorescence ratio of 1.01.
For AAGCAATTAC, the switch fluorescence ratio was 2.11.
Work on AAGCACATTC yielded a switch fluorescence ratio of 1.58.
Work on AAGCACGGAT yielded a switch fluorescence ratio of 1.1.
Sequence AAGCAGAATG has a switch fluorescence ratio of 0.971.
Sequence AAGCAGAGAA has a switch fluorescence ratio of 1.01.
AAGCAGCAGC gave a switch fluorescence ratio of 0.937.
AAGCAGCTTG was tested, and the switch fluorescence ratio was 0.982.
AAGCATAGTA gave a switch fluorescence ratio of 1.04.
For AAGCATCCCA, the switch fluorescence ratio was 1.01.
Work on AAGCATCTGG yielded a switch fluorescence ratio of 0.97.
For AAGCCACGAG, the switch fluorescence ratio was 1.09.
AAGCCAGTCC gave a switch fluorescence ratio of 1.07.
AAGCCCCAAA showed a switch fluorescence ratio of 1.08.
With AAGCCCTAAG the switch fluorescence ratio was 0.997.
Sequence AAGCCCTAT has a switch fluorescence ratio of 0.949.
AAGCCCTGTA was tested, and the switch fluorescence ratio was 0.975.
Sequence AAGCCGGGCG has a switch fluorescence ratio of 1.12.
AAGCCGTCG gave a switch fluorescence ratio of 0.961.
For AAGCGACTGC, the switch fluorescence ratio was 1.07.
For AAGCGCGCGG, the switch fluorescence ratio was 0.97.
In the case of AAGCTAGGCA, the switch fluorescence ratio is reported as 1.02.
Sequence AAGCTAGTTG has a switch fluorescence ratio of 0.963.
AAGCTCCCGT was tested, and the switch fluorescence ratio was 1.02.
AAGCTGCTGT was tested, and the switch fluorescence ratio was 1.
Sequence AAGCTGGAGA has a switch fluorescence ratio of 1.06.
AAGCTGGGCT gave a switch fluorescence ratio of 1.03.
For AAGCTGGTAG, the switch fluorescence ratio was 1.03.
With AAGCTTTTCG the switch fluorescence ratio was 1.
Work on AAGGAAATTG yielded a switch fluorescence ratio of 1.01.
For AAGGACAGAG, the switch fluorescence ratio was 0.947.
With AAGGACCAAT the switch fluorescence ratio was 1.04.
In the case of AAGGAGACG, the switch fluorescence ratio is reported as 1.03.
With AAGGAGCACA the switch fluorescence ratio was 1.13.
Work on AAGGAGTACC yielded a switch fluorescence ratio of 0.992.
With AAGGATCAGG the switch fluorescence ratio was 1.02.
AAGGATGCGG gave a switch fluorescence ratio of 1.02.
For AAGGATGGT, the switch fluorescence ratio was 1.04.
Work on AAGGCAAGAG yielded a switch fluorescence ratio of 1.33.
With AAGGCAGTGC the switch fluorescence ratio was 1.08.
With AAGGCATGGA the switch fluorescence ratio was 1.
Sequence AAGGCCGACT has a switch fluorescence ratio of 1.01.
With AAGGCCGGCC the switch fluorescence ratio was 1.09.
With AAGGCCGGGA the switch fluorescence ratio was 0.987.
Sequence AAGGCTACCT has a switch fluorescence ratio of 1.07.
In the case of AAGGGAAAAG, the switch fluorescence ratio is reported as 1.04.
AAGGGCACAC was tested, and the switch fluorescence ratio was 0.991.
Work on AAGGGCCCAT yielded a switch fluorescence ratio of 0.972.
With AAGGGCTCCC the switch fluorescence ratio was 1.02.
Work on AAGGGCTGCC yielded a switch fluorescence ratio of 0.999.
In the case of AAGGGGACG, the switch fluorescence ratio is reported as 1.02.
AAGGGGCG gave a switch fluorescence ratio of 1.13.
With AAGGGTCGAG the switch fluorescence ratio was 0.994.
AAGGGTCGGG was tested, and the switch fluorescence ratio was 0.992.
AAGGGTCTAC showed a switch fluorescence ratio of 0.987.
For AAGGTAAACA, the switch fluorescence ratio was 1.04.
AAGGTATTAT showed a switch fluorescence ratio of 1.02.
For AAGGTCATCC, the switch fluorescence ratio was 0.988.
AAGGTCGCAA gave a switch fluorescence ratio of 1.22.
AAGGTGATGT gave a switch fluorescence ratio of 1.
AAGGTGCAGC was tested, and the switch fluorescence ratio was 0.985.
With AAGGTGCTCC the switch fluorescence ratio was 1.01.
Sequence AAGGTGTACG has a switch fluorescence ratio of 1.06.
AAGGTGTGG gave a switch fluorescence ratio of 1.05.
Sequence AAGGTGTTGA has a switch fluorescence ratio of 1.03.
AAGTAAGGCT was tested, and the switch fluorescence ratio was 1.02.
In the case of AAGTAATAT, the switch fluorescence ratio is reported as 1.02.
With AAGTACAGGG the switch fluorescence ratio was 1.17.
With AAGTACGC the switch fluorescence ratio was 1.18.
Sequence AAGTAGCGAA has a switch fluorescence ratio of 0.991.
In the case of AAGTAGTGCA, the switch fluorescence ratio is reported as 0.991.
With AAGTATATTA the switch fluorescence ratio was 1.06.
With AAGTATCCA the switch fluorescence ratio was 0.98.
For AAGTATGAA, the switch fluorescence ratio was 0.992.
AAGTATTTC gave a switch fluorescence ratio of 1.01.
Sequence AAGTCACAGC has a switch fluorescence ratio of 1.02.
For AAGTCACCTC, the switch fluorescence ratio was 1.08.
In the case of AAGTCACTCG, the switch fluorescence ratio is reported as 1.06.
With AAGTCATGAG the switch fluorescence ratio was 0.986.
With AAGTCCAAGG the switch fluorescence ratio was 1.02.
AAGTCGACTT was tested, and the switch fluorescence ratio was 0.992.
Work on AAGTCGCAGA yielded a switch fluorescence ratio of 0.97.
In the case of AAGTCGGGC, the switch fluorescence ratio is reported as 0.97.
With AAGTCTAG the switch fluorescence ratio was 0.987.
In the case of AAGTCTAGGG, the switch fluorescence ratio is reported as 0.977.
AAGTCTCAGG showed a switch fluorescence ratio of 0.99.
Sequence AAGTCTTGCC has a switch fluorescence ratio of 1.01.
With AAGTGAGCCT the switch fluorescence ratio was 1.06.
Sequence AAGTGATATG has a switch fluorescence ratio of 1.04.
For AAGTGATCC, the switch fluorescence ratio was 1.1.
AAGTGATTGA was tested, and the switch fluorescence ratio was 1.
With AAGTGCGCAG the switch fluorescence ratio was 1.02.
In the case of AAGTGCGGAG, the switch fluorescence ratio is reported as 0.994.
AAGTGCTGTA showed a switch fluorescence ratio of 1.04.
AAGTGGATTC was tested, and the switch fluorescence ratio was 0.988.
With AAGTGTTTAG the switch fluorescence ratio was 0.961.
In the case of AAGTGTTTTG, the switch fluorescence ratio is reported as 0.974.
Work on AAGTTACGAA yielded a switch fluorescence ratio of 1.08.
For AAGTTAGTTC, the switch fluorescence ratio was 1.02.
AAGTTATATT showed a switch fluorescence ratio of 0.996.
In the case of AAGTTATGAT, the switch fluorescence ratio is reported as 1.01.
Work on AAGTTATGGT yielded a switch fluorescence ratio of 1.01.
For AAGTTATTC, the switch fluorescence ratio was 1.04.
AAGTTCGCGC was tested, and the switch fluorescence ratio was 0.983.
AAGTTCTTAC was tested, and the switch fluorescence ratio was 0.992.
For AAGTTGACGA, the switch fluorescence ratio was 1.02.
AAGTTTATC gave a switch fluorescence ratio of 1.01.
Work on AAGTTTGCAC yielded a switch fluorescence ratio of 1.05.
For AATAAACCGC, the switch fluorescence ratio was 1.15.
Work on AATAAAGTTA yielded a switch fluorescence ratio of 1.04.
Work on AATAAATTAT yielded a switch fluorescence ratio of 1.
AATAACCGC showed a switch fluorescence ratio of 1.19.
In the case of AATAAGCCAA, the switch fluorescence ratio is reported as 0.983.
Sequence AATAAGGTCG has a switch fluorescence ratio of 0.932.
Work on AATAAGTTC yielded a switch fluorescence ratio of 0.979.
In the case of AATAATCTGA, the switch fluorescence ratio is reported as 0.969.
AATAATTGAG was tested, and the switch fluorescence ratio was 0.974.
AATACCAATG showed a switch fluorescence ratio of 1.01.
AATACGAGTT showed a switch fluorescence ratio of 1.06.
AATACGGACT was tested, and the switch fluorescence ratio was 1.38.
With AATACGGATG the switch fluorescence ratio was 1.01.
AATACTGAGA gave a switch fluorescence ratio of 1.03.
In the case of AATACTTAGC, the switch fluorescence ratio is reported as 1.05.
Sequence AATACTTGAA has a switch fluorescence ratio of 1.01.
For AATAGACTTG, the switch fluorescence ratio was 0.977.
For AATAGAGGCA, the switch fluorescence ratio was 1.06.
AATAGAGGGC gave a switch fluorescence ratio of 0.978.
AATAGAGTTT gave a switch fluorescence ratio of 1.03.

— the supplement of paper PMC10126150
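Also: ATP exposure 15 min at 22 °C before imaging.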
